Experimental data published in paper PMC12040169 (PLOS Biology, 2025).
The list shows a part of the results.

These molecules were tested on T1, C. trachomatis L2/434/Bu expressing GFP (CTL2-GFP). Conditions: total inclusion area; 28.5 h, 10 µM; inhibitor.
T1 construct: L2/434/Bu GFP intracellular growth in HeLa cells
Set-up: species or system HeLa; C. trachomatis total inclusion area by high-content imaging, normalised to DMSO
Procedure, shortened: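 Following bulk GFP and resorufin fluorescence reads, infected cells were fixed, Hoechst-stained and imaged on a high-content platform. Inclusion total area and number per well served as growth proxies; nuclei counts indicated host viability. MICs were derived as for the fluorescence assay.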

Row | SMILES | % of control remaining
1 | CCC(C)c1ccc(NC(=O)CSc2nc3cccnc3[nH]2)cc1 (centres unmarked) [CBK264349] | 120.159
2 | O=C(Cn1cncn1)c1ccc2c(c1)CCO2 [CBK020087] | 46.2841
3 | COc1cc(Nc2cc(-c3ccccc3N(C)C)ncn2)cc(OC)c1OC [CBK090702] | 49.0567
4 | COC(=O)[C@H]1Cc2cc3c(cc2[C@H]1c1cc(OC)c(OC)c(OC)c1)OCO3 [CBK200105] | 10.8411
5 | O=C1NCC2(C/C=C/CCOc3ccccc31)CCN(C(=O)CCc1ccccc1)CC2 [CBK292017] | 106.506
6 | Cc1ccc(OCC(=O)O/N=C(\N)Cc2ccc([N+](=O)[O-])cc2)c(C)c1 [CBK263102] | 98.6365
7 | CC1CCc2c(sc3ncnc(NCC(=O)N4CCCC4)c23)C1 (centres unmarked) [CBK306079] | 105.776
8 | CN(C)S(=O)(=O)CCNC(=O)c1ccc(-c2ccccc2CO)cc1 [CBK306773] | 75.7001
9 | Cn1ccnc1C1(O)C2CCCC1CN(CC1CCCCC1)C2 (centres unmarked) [CBK285220] | 119.182
10 | O=C1NC2(CCN(C(=O)Cc3c(F)ccc(F)c3F)CC2)Oc2ccc(-c3ccoc3)cc21 [CBK115848] | 91.4049
11 | CCn1c(C(O)c2ccc(OC)c(OC)c2)nc2ccccc21 (centres unmarked) [CBK262974] | 80.1197
12 | COc1ccnc(N2CCCN(CCc3ccc(OC)c(OC)c3)CC2)n1 [CBK084002] | 85.3637
13 | COc1ccc2cc(OCCO)ccc2c1 [CBK176054] | 54.7316
14 | O=C(CC1CCN(Cc2ccccn2)CC1)NCC1(c2ccccc2)CCCC1 [CBK285959] | 115.015
15 | CC1=C[C@@H](CNC(=O)c2ccccn2)[C@H](C(C)C)C[C@H]1CC(=O)O [CBK289212] | 107.074
16 | COc1ccc(-c2ccc3n(c2=O)C[C@H]2C[C@@H]3CN(C(=O)c3ccncc3)C2)cc1 [CBK289178] | 98.5508
17 | FC(F)(F)c1ccc(CN2CCN(c3nccnc3OCc3cccnc3)CC2)cc1 [CBK083133T] | 69.0273
18 | CC(NC(=O)Cc1cccs1)c1nc2cccnc2n1C(C)C (centres unmarked) [CBK283828] | 111.197
19 | CCN(CC(=O)N1CCN(C)CC1)S(=O)(=O)c1ccc(OC)cc1 [CBK269374] | 83.7652
20 | CCOC(=O)c1cn(CC)c2cc(F)c(OCC)cc2c1=O [CBK307139] | 52.97
21 | CN(C)CC(=O)NC(Cc1cccs1)c1nccs1 (centres unmarked) [CBK285061] | 101.316
22 | Cc1cc(C(=O)N2CCC(N3C(=O)OCC3(C)C)CC2)n(C(C)(C)C)n1 [CBK044233] | 99.5812
23 | COc1ccc(/C=N/NC(=O)Cc2cccn2C)cc1[N+](=O)[O-] [CBK262789] | 105.173
24 | CC(=O)Nc1cccc(C(=O)NCC(c2cccs2)N(C)C)c1 (centres unmarked) [CBK304583] | 26.5284
25 | CN1CCN(Cc2nc3c(c(=O)n(C)c(=O)n3C)n2CCc2ccccc2)CC1 [CBK269507] | 88.8887
26 | CC(C)c1cc(C(=O)N2CCCCCC2c2ccn(C)n2)no1 (centres unmarked) [CBK283048] | 100.474
27 | COc1ccc(-c2cc(NCc3cc(OC)c(OC)c(OC)c3)ncn2)cc1 [CBK091184] | 121.874

Row | SMILES | % of control remaining
28 | CSc1nnc(-c2ccccc2O)n1CCc1ccccc1 [CBK076668] | 94.3082
29 | Nc1ncc(-c2ccsc2)nc1-c1ccc(O)cc1 [CBK115631] | 74.8954
30 | CC(C)(N)CC(=O)N1CCC(Cn2cncn2)(C2CCCCC2)CC1 [CBK136822] | 62.8862
31 | COc1ccc(-c2cc3cccnc3n2CC(=O)NC(C)(C)C)cc1 [CBK285381] | 83.2274
32 | Cc1cc(C)nc(NC(=N)NCCc2c[nH]c3ccccc23)n1 [CBK266321] | 27.0161
33 | COCc1nc2n(n1)CC(NC1CCc3ccccc3CC1)CC2 (centres unmarked) [CBK304737] | 56.3245
34 | Cc1oc2c(c1C(=O)NC(C)c1ccccn1)CCCC2 (centres unmarked) [CBK281825] | 102.89
35 | CC(Oc1ccc(F)cc1)C(=O)NCCN1CCOCC1 (centres unmarked) [CBK265508] | 100.925
36 | CC(C)(C)C(=O)N1CCC(n2nc(-c3ccco3)ccc2=O)CC1 [CBK282341] | 105.032
37 | O=S(=O)(c1ccc(Cl)c(Cl)c1)N1CCOCC1 [CBK043794] | 83.3317
38 | CN(C)c1cccc(Nc2ccc(-c3ccco3)cn2)c1 [CBK036885] | 141.105
39 | O=C(CSCc1c(Cl)cccc1Cl)NN1C(=O)c2ccccc2C1=O [CBK267800] | 114.667
40 | CC(C)(C)S(=O)(=O)c1ccc(C(=O)O)s1 [CBK260880] | 81.5775
41 | O=c1[nH]c2ccc(NC(=S)NCc3ccccc3)cc2[nH]1 [CBK296099] | 71.9672
42 | Cc1nc2ccccc2c(=O)n1CC(=O)NCc1ccccc1 [CBK072830] | 101.423
43 | O=C(CC1Nc2cccc3cccc(c23)NC1=O)Nc1ccccc1 (centres unmarked) [CBK268035] | 98.2807
44 | Cc1noc(C)c1CC(=O)N1[C@H]2CCCCCN(C)[C@@]2(C)C[C@H]1c1ccccc1 [CBK286094] | 106.633
45 | Fc1cc2c3c(c1)c1c(n3CCC2)CCNCC1 [CBK018406C] | 84.5705
46 | Cc1cnoc1-c1cc(Cl)cc(Cl)c1O [CBK015870] | 91.8512
47 | O=C(Cc1cccnc1)N1CCC(c2cccc(Cc3ccc(C(F)(F)F)cc3)n2)CC1 [CBK286223] | 45.5759
48 | CC(=O)N[C@H](C)Cn1nnc2ccccc21 [CBK282246] | 94.0561
49 | COc1ccc(CN(C)C(=O)CCc2c(C)nc3c(cnn3C(C)C)c2C)cc1 [CBK297087] | 106.301
50 | C/C(=N\NC(=O)CC1(C)OCCO1)c1oc(C)cc1C [CBK022234] | 62.0192
51 | CCCN(Cc1ccoc1)CC1CC1 [CBK018931] | 88.3233
52 | Cc1cccc(C)c1NC(=S)N1CCC2(CC1)OCCO2 [CBK016408] | 50.2349
53 | O=C(c1ccc(-c2nccnc2NCc2ccco2)cc1)N1CCOCC1 [CBK036920] | 125.214
